Laboratory results taken from paper PMC4336329 (PLoS ONE, 2015).
The campaign covered roughly 310,000 compounds. About 2,200 (0.71%) showed an effect of 50% or more. Effects have a minus sign here. Some of the results follow.

Molecular target: human ether-à-go-go-related gene (hERG) potassium channel (human, UniProt Q12809)
Assay: primary screen, population patch clamp on CHO cells stably expressing hERG

Sequence of human ether-à-go-go-related gene (hERG) potassium channel (Q12809 whole entry, looked up): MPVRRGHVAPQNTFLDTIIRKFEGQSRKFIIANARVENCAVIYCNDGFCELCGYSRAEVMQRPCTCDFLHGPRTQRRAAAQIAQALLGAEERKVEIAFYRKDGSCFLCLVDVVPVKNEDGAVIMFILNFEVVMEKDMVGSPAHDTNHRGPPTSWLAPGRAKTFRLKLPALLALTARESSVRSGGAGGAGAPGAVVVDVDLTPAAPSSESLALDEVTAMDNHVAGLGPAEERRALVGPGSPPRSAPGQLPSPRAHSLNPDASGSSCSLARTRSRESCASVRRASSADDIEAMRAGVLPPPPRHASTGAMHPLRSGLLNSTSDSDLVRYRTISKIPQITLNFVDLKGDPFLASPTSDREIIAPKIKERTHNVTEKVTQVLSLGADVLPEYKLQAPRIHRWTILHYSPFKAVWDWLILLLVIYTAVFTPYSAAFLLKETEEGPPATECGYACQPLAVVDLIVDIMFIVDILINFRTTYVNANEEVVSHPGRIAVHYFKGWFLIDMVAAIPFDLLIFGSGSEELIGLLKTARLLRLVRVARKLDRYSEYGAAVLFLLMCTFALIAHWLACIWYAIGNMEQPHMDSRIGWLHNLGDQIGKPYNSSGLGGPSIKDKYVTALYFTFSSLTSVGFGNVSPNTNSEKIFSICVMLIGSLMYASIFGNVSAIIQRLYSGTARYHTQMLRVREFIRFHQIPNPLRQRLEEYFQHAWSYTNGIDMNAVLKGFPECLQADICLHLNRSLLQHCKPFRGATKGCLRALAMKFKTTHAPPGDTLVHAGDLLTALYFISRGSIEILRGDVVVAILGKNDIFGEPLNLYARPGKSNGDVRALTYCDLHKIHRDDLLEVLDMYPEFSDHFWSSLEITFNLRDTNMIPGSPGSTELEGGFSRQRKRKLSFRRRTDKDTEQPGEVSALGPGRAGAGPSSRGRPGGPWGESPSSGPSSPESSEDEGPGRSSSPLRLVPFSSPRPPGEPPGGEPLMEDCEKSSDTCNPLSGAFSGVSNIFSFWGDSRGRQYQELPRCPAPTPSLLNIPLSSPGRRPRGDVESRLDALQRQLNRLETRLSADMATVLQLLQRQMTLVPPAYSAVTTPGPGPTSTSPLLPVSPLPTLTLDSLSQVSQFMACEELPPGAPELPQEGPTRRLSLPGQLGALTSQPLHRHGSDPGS

Compound | hERG current change (%, negative = inhibition) at 1uM
O=C(COc1ccc(Br)cc1)Nc1ccc(S(=O)(=O)Nc2ccccn2)cc1 | -1.23%
CCCOc1ccc2nc(C)c(CCC)c(SC(=N)N)c2c1.Cl | 13.7%
CC(OC(=O)CNC(=O)c1ccc2ccccc2c1)C(=O)NC1CCCCC1C (centres unmarked) | 6.58%
CCOC(=O)c1[nH]c2ccc(Cl)cc2c1NC(=O)/C=C/c1ccc2c(c1)OCO2 | 2.8%
Cc1cccc(C(=O)N2CCC(=O)N(C(COCc3cccc(C(F)(F)F)c3)Cc3ccccc3)CC2)c1 (centres unmarked) | 7.18%
CCn1c2ccccc2c2cc(/C=N/n3c(C)nnc3C)ccc21 | 1.71%
CN(C)c1ccc(CNC(=O)CN2C(=O)COc3ccc(S(=O)(=O)N4CCCC4)cc32)cc1 | 13.7%
Cc1c(NS(=O)(=O)c2ccc3[nH]c(=O)[nH]c3c2)c(=O)n(-c2ccccc2)n1C | 4.73%
CCN1CCc2c(C#N)c(NCc3ccccc3)nc(NCCO)c2C1 | -22.3%
O=C(OCc1nc2ccccc2s1)c1ccc(Br)o1 | 13.7%
O=C(CCC(=O)N1CCN(c2cccc(Cl)c2)CC1)c1cccs1 | 6.22%
O=c1[nH]c2cccnc2n1Cc1ccco1 | -0.139%
CC(C)c1ccccc1NC(=O)COC(=O)Cc1cccc(C(F)(F)F)c1 | 11.2%
CCN(C=NC1=NN(c2cccc(C(F)(F)F)c2)CC1)CC | -2.46%
O=[N+]([O-])c1ccccc1OCCCN1CCOCC1 | 10.6%
Cc1cccc(NC(=S)N2CCC(NC(=O)c3ccco3)CC2)c1 | 11.9%
O=C(NCC(c1cccs1)N1CCOCC1)c1cn(-c2ccccc2)nc1-c1ccccc1 (centres unmarked) | -0.149%
CCOc1ccc(NC(=O)Cn2nnc(C(=O)NCCc3ccc(OC)c(OC)c3)c2N)cc1 | 4.63%
CC(=O)/C(N=Nc1cc(C)ccc1O)=C(\C)O | 10.6%

Compound | hERG current change (%, negative = inhibition) at 1uM
CC1CCN(c2ccc(C(=O)O)cc2)CC1 | 9.84%
COc1cc(NC(=O)c2ccccc2C)c(OC)cc1NC(=O)CN1CCOCC1 | 5.72%
Cc1occc1C(=O)NC1CCCN(Cc2ccc(CC(C)C)cc2)C1 (centres unmarked) | 6.64%
COc1cccc(OC)c1C(=O)NCCOc1cc(C)cc(C)c1 | 11.7%
O=C(CSc1nnc(Cc2ccccc2)n1Cc1ccco1)NC12CC3CC(CC(C3)C1)C2 | -7.14%
Cn1c(/C=N/Nc2nc3ccccc3[nH]2)nc2ccccc21 | 6.83%
CC(=O)OC[C@]12CCC(C)=C[C@H]1O[C@@H]1[C@H](O)[C@@H](OC(C)=O)[C@@]2(C)[C@]12CO2 | 6.99%
O=C(CSc1ccc(-c2cccnc2)nn1)N1CCCc2ccccc21 | 0.142%
Cc1ccc(OCCNC(=O)c2ccccc2N)cc1 | 12.1%
O=C1NCCN1CCNS(=O)(=O)c1cc(C(F)(F)F)cc(C(F)(F)F)c1 | 13.2%
CC1CC(C)CN(C(=O)/C(=C\c2ccccc2)c2ccccc2)C1 (centres unmarked) | -4.52%
CCOC(=O)c1[nH]c2c(c1-c1ccc(OC)cc1)C(=O)CC(c1ccc(OC)c(OC)c1)C2 (centres unmarked) | 1.47%
O=C(CSCc1ccc(Cl)cc1)Nc1ccc(S(=O)(=O)N2CCCCCC2)cc1 | 9.01%
CN1C=CC=C/C1=C1\SC(=S)N(N)C1=O | 6%
O=C(Nc1cccc(Cl)c1)NC1CC2CCC1C2 (centres unmarked) | 15.2%
COC(=O)CC1(Cc2ccccc2)C(=O)NC(=O)NC1=O | 18.4%
CSc1ccc(-c2c(C#N)c(N)nc3c2c(C)nn3-c2ccccc2)cc1 | 5.53%
COc1ccc(OCC(=O)Nc2ccccc2-c2ccccc2)cc1 | 13.3%
COc1ccc(OCCN2CCOCC2)cc1 | 20.7%

Compound | hERG current change (%, negative = inhibition) at 1uM
O=C(O)c1ccc(-n2nncc2-c2ccco2)cc1 | 14.1%
CCn1c(=O)cc(OCC(=O)NCc2cccnc2)c2ccccc21 | 7.58%
Cl.O=C(O)CCN1CCc2ccccc2C1c1cccs1 (centres unmarked) | 19.9%
COC(C(=O)Nc1ccnn1C1CCN(Cc2ccc(Cl)s2)CC1)c1ccccc1 (centres unmarked) | 6.73%
CCOc1nc(C)ccc1-c1noc(-c2cccnc2)n1 | 17.8%
CN(C)c1ccc(C(=O)N2CCCC(CCC(=O)N3CCN(c4ccccn4)CC3)C2)cc1 (centres unmarked) | 13.8%
COc1cccc(C2=NOC(C(=O)Nc3cccc(C(C)=O)c3)C2)c1OC (centres unmarked) | 3.22%
CCC1CCCCN1CCCNC(=O)c1ccc(CS(=O)(=O)Cc2ccccc2F)o1 (centres unmarked) | 12.6%
C/C(=C\C(=O)c1ccc(Cl)cc1)NCc1ccc2c(c1)OCO2 | 1.71%
C[C@]12CC[C@@H]3c4cc(O)c(O)cc4CC[C@H]3[C@@H]1CC[C@@H]2O | 24.1%
Cc1cc(C)c(NC(=O)Cn2nnc(C(=O)NCc3ccco3)c2N)c(C)c1 | 11.9%
COC1=C(Nc2ccccc2)C(=O)c2ccccc2C1=O | 3.25%
CCOc1ccc(NC(=O)CSc2nc(O)c(C)c(=O)n2-c2ccc(F)cc2)cc1 | 7.42%
CC(C)Cn1[nH]c2c3c(ccc2c1=O)C(=O)c1ccccc1C3=O | 6.03%
COc1ccc(CCNC(=O)COC(=O)Cc2cc(OC)c(OC)c(OC)c2)cc1 | 6.26%
COc1cccc2cc(C(=O)C3=C(O)C(=O)N(CCN4CCOCC4)C3c3ccc(C)o3)oc12 (centres unmarked) | 9.09%
CCOC(=O)c1ccc(-n2cccc2/C=C2\NC(=O)NC2=O)cc1 | 14.6%
CN1CCN(c2ccccc2/C=C2/C(=O)Nc3ccccc32)CC1 | 11.5%
